# Experimental data reported in PMC4336329 (PLoS ONE, 2015).
# Out of some 310,000 compounds screened, about 14,000 (4.5%) showed an effect of 50% or more. The effect is printed as a negative number. This is one part of the list.
# Biological target: human ether-à-go-go-related gene (hERG) potassium channel (human, UniProt Q12809)
# Test: primary screen, population patch clamp on CHO cells stably expressing hERG
# 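Note: peak tail current of the secondary pulse compared with the same well before compound.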
# human ether-à-go-go-related gene (hERG) potassium channel, sequence (Q12809 whole entry, looked up): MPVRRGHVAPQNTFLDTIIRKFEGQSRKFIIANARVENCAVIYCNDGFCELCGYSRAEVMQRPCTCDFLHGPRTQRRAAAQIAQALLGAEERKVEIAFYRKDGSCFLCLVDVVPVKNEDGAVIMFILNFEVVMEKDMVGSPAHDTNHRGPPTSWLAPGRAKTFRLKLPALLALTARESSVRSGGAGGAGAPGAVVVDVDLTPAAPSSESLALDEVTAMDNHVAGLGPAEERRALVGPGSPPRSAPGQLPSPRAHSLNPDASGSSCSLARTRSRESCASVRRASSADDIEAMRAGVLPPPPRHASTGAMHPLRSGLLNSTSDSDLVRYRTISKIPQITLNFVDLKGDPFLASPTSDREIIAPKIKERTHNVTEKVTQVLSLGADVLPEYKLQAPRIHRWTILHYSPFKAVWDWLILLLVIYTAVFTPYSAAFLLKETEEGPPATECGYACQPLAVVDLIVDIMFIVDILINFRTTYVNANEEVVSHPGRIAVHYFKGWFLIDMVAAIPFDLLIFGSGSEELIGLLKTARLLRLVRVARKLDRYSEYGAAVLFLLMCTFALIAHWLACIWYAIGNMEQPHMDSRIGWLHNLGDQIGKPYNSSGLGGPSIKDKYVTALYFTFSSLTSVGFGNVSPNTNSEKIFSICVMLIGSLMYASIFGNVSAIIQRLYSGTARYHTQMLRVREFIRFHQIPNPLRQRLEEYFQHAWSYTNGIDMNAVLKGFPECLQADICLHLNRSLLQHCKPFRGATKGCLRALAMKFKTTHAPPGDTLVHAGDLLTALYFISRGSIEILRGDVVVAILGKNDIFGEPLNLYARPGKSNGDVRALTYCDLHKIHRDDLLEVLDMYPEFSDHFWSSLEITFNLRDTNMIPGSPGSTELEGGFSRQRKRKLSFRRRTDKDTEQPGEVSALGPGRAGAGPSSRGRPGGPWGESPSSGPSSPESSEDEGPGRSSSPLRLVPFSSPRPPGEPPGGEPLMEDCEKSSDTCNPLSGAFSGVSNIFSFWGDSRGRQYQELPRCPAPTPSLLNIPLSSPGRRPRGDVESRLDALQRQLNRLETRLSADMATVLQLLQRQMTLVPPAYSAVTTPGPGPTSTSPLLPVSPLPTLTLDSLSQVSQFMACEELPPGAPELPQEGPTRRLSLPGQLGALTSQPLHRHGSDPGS
row,SMILES,"hERG current change (%, negative = inhibition) at 10uM"
1,C=CCc1c(C)nc(-c2ccccc2)nc1N/N=C/c1ccccc1,-32.5%
2,CCn1c(COc2ccc(C)cc2)nnc1SCC(=O)NNC(=O)c1ccc(OC)cc1,4.97%
3,Fc1ccc(NC(=S)Nc2ccc(Cl)cc2)cc1,10.1%
4,Cc1ccc(C(=O)Nn2cnnc2)cc1[N+](=O)[O-],-7.48%
5,C[C@]12N[C@H](Cc3ccccc31)c1ccccc12.O=C(O)/C=C\C(=O)O,-3.29%
6,COc1ccc(OC)c(NS(=O)(=O)c2ccc(NC(=O)c3ccc(NS(C)(=O)=O)cc3)cc2)c1,14.2%
7,CC1(C)Cc2c(c(-c3ccco3)nc3sc4c(NCCCO)ncnc4c23)CO1,5.78%
8,NS(=O)(=O)c1cc(C(=O)OC2CCOC2=O)ccc1Cl (stereo not shown),12.7%
9,CCOc1ccc(NC(=O)c2ccc(CN3CCc4ccccc4C3)cc2)cc1,0.805%
10,Cc1ccc(N2CCN(Cc3ccccc3)CC2=O)c(C)c1.O=C(O)C(=O)O,-4.36%
11,O=C(COc1ccccc1Cl)Nc1ccc(NC(=O)c2ccco2)cc1,-42.6%
12,O=C(N/N=C/C(Br)=C/c1ccccc1)C1CC1,32.2%
13,CC(=O)Nc1cc2c(=O)n(Cc3ccccc3)c(C)nc2cc1N1CCOCC1,1.32%
14,OC(CC#CCN1CCCC1)(c1ccccc1)c1ccccc1,-13.5%
15,CCOC(=O)C(=O)/C(C#N)=C/Nc1ccc(F)cc1,15.6%
16,Cc1cccc(C(=O)N/C(=C/c2ccco2)C(=O)N2CCCCCC2)c1,8.38%
17,CN(C)C1=C(C#N)C(c2ccccc2)=NP(N(C)C)(N(C)C)=N1,-0.483%
18,COc1ccc(NC(=O)CSc2ncn(-c3ccccc3)n2)cc1Cl,-4.21%
19,CC1CCCC(C)N1C(=O)c1ccc(CS(=O)(=O)c2ccccc2)cc1 (stereo not shown),-2.22%
20,O=C1c2ccc(Oc3ccc([N+](=O)[O-])cc3)cc2C(=O)N1CCCO,-60.8%
21,CCOC(=O)C(Sc1nn(C)c(=S)s1)C(C)=O (stereo not shown),4.21%
22,COCCC(=O)NNS(=O)(=O)c1ccc(Cl)cc1,15.2%

row,SMILES,"hERG current change (%, negative = inhibition) at 10uM"
1,CCOCCCN(C(=O)Cn1nnc(-c2ccc(C)o2)n1)C(C(=O)NC1CCCC1)c1ccco1 (stereo not shown),-6.98%
2,O=S1CC/C(=N\O)c2ccccc21 (stereo not shown),12.8%
3,COc1cc(OC)c2ccc(=O)oc2c1C(CCN1CCCC1)c1ccc2c(c1)OCO2 (stereo not shown),-56.7%
4,COC(=O)Cn1cc(C=C2C(=O)N(C)C(=O)N(C)C2=O)c2ccccc21,19.2%
5,CCN(CC)C(=O)CSc1nc2c(sc(=S)n2CC)c(=O)n1-c1ccccc1,-66.9%
6,O=C(N/N=C/c1cccc2ccccc12)c1cccs1,20.7%
7,CC(=O)Nc1sc(N/N=C\c2ccccc2Cl)nc1-c1cccs1,12%
8,CC(C)NC(=S)NCc1cccs1,4.01%
9,CCCCOC(=O)C1=C(N)OC2=C(C(=O)CC(C)(C)C2)[C@]12C(=O)N(C)c1ccccc12,20.8%
10,COc1ccc2c(c1OC)C(=O)N(c1ccc(C)cc1)C2,13.2%
11,Cc1ccsc1C(=O)OCC(=O)NCc1ccc(Cl)cc1,13.9%
12,COc1c(C)cc(C(=O)C2CCCN(S(=O)(=O)c3c(C)noc3C)C2)cc1C (stereo not shown),-2.78%
13,Cc1ccccc1NC(=O)C(C#N)Cc1cccnc1 (stereo not shown),-4.9%
14,Cc1ccc(NC(=O)c2snnc2C)cc1Cl,-9.81%
15,C/C(=N/NC(=O)COc1cc(C)ccc1C(C)C)C(=O)O,8.79%
16,O=C(CCCn1cncn1)N1CCCC(N2CCN(c3ccc(F)cc3)CC2)C1 (stereo not shown),-25.2%
17,CC1(C)CC(=O)C2=C(C1)NC(=O)NC2c1ccccc1 (stereo not shown),21.7%
18,O=C(O)C1CCCCC1C(=O)Nc1nc(-c2cccs2)cs1 (stereo not shown),4.27%
19,CCc1nc(C)cn1S(=O)(=O)c1cc(Br)ccc1OC,2.61%
20,Cc1ccc(S(=O)(=O)c2cccc(S(=O)(=O)N3CCCC3)c2)cc1S(=O)(=O)N1CCCC1,-29.5%
21,Nc1c(Cl)cc(-c2csc(N3CCCC3c3nc4cc(Cl)c(N5CCCCC5)cc4n3CCOCCO)n2)cc1Cl (stereo not shown),15.3%
22,Cc1c(C(=O)NCc2ccco2)oc2ccccc12,-6.97%

row,SMILES,"hERG current change (%, negative = inhibition) at 10uM"
1,CSc1ccc(CCNC(=O)CCc2nnc3ccc(NCCCN4CCCC4=O)nn23)cc1,-1.64%
2,COc1ccc(/C=C2\C(=N\O)C3CCN2CC3)cc1.Cl,6.66%
3,O=C(CS(=O)(=O)c1ccccc1)Nc1nnc(Cc2ccccc2)s1,3.43%
4,CCCCN1c2cc(C)c(O)cc2C(C(=O)OCC)C1C (stereo not shown),13.7%
5,COc1ccc(CN(C)c2ncnc3sccc23)c(OC)c1OC,-15.6%
6,Cc1cccc(OCC(=O)Nc2cccc3nsnc23)c1,10.2%
7,COc1ccc(C2C(C#N)=C(N)SC(N)=C2C#N)cc1OC,10.6%
8,CCCN(CC(=O)c1cc(C)n(C)c1C)S(=O)(=O)c1cccc(C(F)(F)F)c1,-15.1%
9,CCCCCCCNC(=O)C1(CC2CC(c3cccc(Br)c3)=NO2)CCN(C(=O)Cc2ccc(F)cc2)CC1 (stereo not shown),-7.08%
10,CCC(=O)Nc1ccc(C2=Nn3c(nnc3C(C)C)SC2)cc1.Cl,21%
11,COc1ccc(CCNC(=O)c2cc3c(=O)n4ccccc4nc3n(CCCN3CCOCC3)c2=N)cc1OC,-75.1%
12,CCC(=O)N1c2ccccc2-c2nnc(SC)nc2OC1c1ccc(N(C)C)cc1 (stereo not shown),-6.67%
13,CN(c1ccc(C(=O)O)cc1)S(=O)(=O)c1ccc(Cl)cc1,1.63%
14,CCN(CC)C(=O)c1cc(S(=O)(=O)N2CCCCC2)c[nH]1,23.5%
15,CC(C)OCCCN(CC(O)c1ccccc1)CC(O)c1ccccc1.O=C(O)C(=O)O (stereo not shown),-10.1%
16,O=C(CN1CCCC1)NC(=O)NC1CCCC1,16.5%
17,COC(=O)C1=C(C(=O)OC)[C@@H]2N(C)c3ccccc3[C@@]23C[C@@H](C(=O)OC)N(C(=O)COCc2ccccc2)C3=N1,-9.16%
18,Cc1ccc(NC(=O)c2ccccc2-c2ccc(C(F)(F)F)cc2)cc1S(=O)(=O)N1CCOCC1,-8.45%
19,Cc1ccc(N2CC(C(=O)NCc3cccs3)CC2=O)cc1 (stereo not shown),-12.8%
20,COC(=O)c1ccccc1NC(=O)Nc1ccc2c(c1)OCO2,10.1%
21,O=C(Nc1ccc2c(c1)OCO2)c1cc(-c2ccccc2Cl)on1,15.3%
22,O=C(Nc1cccc(S(=O)(=O)N2CCOCC2)c1)c1cnn2c(C(F)F)cc(-c3ccccc3)nc12,11.6%

row,SMILES,"hERG current change (%, negative = inhibition) at 10uM"
1,c1ccc(-c2nnc(N3CCN(c4ccccc4)CC3)nc2-c2ccccc2)cc1,4.72%
2,CN1CCN(c2nc(C(N)=O)cc(-c3ccccc3)n2)CC1,-44.1%
3,CCN(CC)P(=O)(c1nccn1C)N(CC)CC,27.3%
4,O=C(Cn1cnc([N+](=O)[O-])c1)NC1CCCC1,8.33%
5,Fc1ccccc1CNC(=S)Nc1ccc(Cl)cc1,-17.5%
6,N#Cc1nc(-c2ccc(OCc3ccccc3)cc2)oc1N1CCOCC1,10.4%
7,Cc1cc(OCC(=O)NCc2ccccn2)c2c(C)c(C)c(=O)oc2c1,-11.2%
8,S=C(NCC(c1cccnc1)N1CCOCC1)NC1CCCCC1 (stereo not shown),3.84%
9,Cc1cc2nccc(-c3ccc(Cl)cc3Cl)n2n1,0.931%
10,CCN(Cc1cc2ccccc2[nH]c1=O)C(=O)c1cccc([N+](=O)[O-])c1,-21.8%
11,COc1ccccc1N1CCN(C2CCCN(C(=O)CN3CCCC3=O)C2)CC1 (stereo not shown),15.4%
12,CN1CCCc2cc3c(C(F)(F)F)cc(=O)oc3nc21,12.9%
13,CC1(C)CC(=O)C(N=Nc2cccc([N+](=O)[O-])c2)=C(O)C1,3.25%
14,CCOC(=O)c1sc(NC(=O)CSc2nnnn2-c2ccc(C)cc2C)nc1C,23.1%
15,Cn1cnc2cc(NCc3ccccc3Cl)ccc21,-35%
16,O=C(Cc1cccc2ccccc12)NN1C(=O)CSC1=S,16.2%
17,CSc1ccccc1NC(=O)CN(C)CC(=O)Nc1ccc(Cl)cc1[N+](=O)[O-],-31.6%
18,Cc1ccc(S(=O)(=O)C(C#N)c2nc3ccccc3nc2N2CCN(C)CC2)cc1 (stereo not shown),-13.1%
19,CCC(=O)Nc1ccc(-n2nnnc2SCC(=O)NNC(=O)c2ccco2)cc1,2%
20,CCOC(=O)C1=C(C)N(c2ccccc2)C(=O)/C1=C\c1ccco1,3.26%
21,COc1ccc(OCCn2cc(/C=N/NC(=O)c3ccncc3)c3ccccc32)cc1,-15.3%
22,CCCc1ccc(S(=O)(=O)Nc2ccc(C)c(NS(C)(=O)=O)c2)cc1,-6.71%
